Experimental findings from PubChem BioAssay AID1963576 (National Center for Advancing Translational Sciences (NCATS), 2024) are described below.

Out of some 46,000 compounds screened, about 60 (0.1%) were called active. Roughly 3% stayed inconclusive and do not appear here. The call rests on the fitted dose curve; in most records, active means well fitted inhibition curve with a large enough effect; inconclusive means small, poorly fitted or top-dose-only effect; inactive means no such curve, though single readings can be large or run the other way. Some of the results follow.

The nature of this experiment: Primary qHTS assay for Inhibitors of ovarian cancer metastasis using an organotypic tumor microenvironment (TME) model. Further: nearly all actives have a fitted effect of over 65% in size.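 On activity change, negative = inhibition: plate controls were DMSO wells for no effect and tomatine positive control wells for full effect.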 Particulars: SKOV3ip1-GFP adhesion/invasion on 3D omental model, fluorescence; series mostly up to 45.8 µM; activity change, negative = inhibition: at the top concentration. The gist of the method:
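Primary human omental fibroblast/mesothelial 3D culture pre-formed 48 h. SKOV3ip1-GFP cells added with compounds (0.36-46 umol/L), incubated 2 h RT/16 h 37 C, fixed; GFP cells quantified at 488/509 nm.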
Consider `Cc1ccccc1NC(=O)c1c(NC(=O)C(C)Oc2cccc(Cl)c2)sc2c1CCCC2` (stereo not drawn), for which the “activity change, negative = inhibition” value was inactive: -0.134%. For `CCc1c(C)sc2c1CCN(C(=O)Nc1ccccc1C(F)(F)F)C2c1ccccc1` (stereo not drawn), the “activity change, negative = inhibition” value is inactive: 4.12%. Take `O=C(c1nc(-c2ccc(Cl)cc2)n2c1CCCCC2)N1CCN(c2ccccc2F)CC1`: the “activity change, negative = inhibition” value is inactive: 5.34%.

For `Cc1oc2c(c1C(=O)Nc1cccc(Br)c1)C1=NCCN1C=N2`, the “activity change, negative = inhibition” value is inactive: 3.82%.

As to `COc1cc(NC(=O)c2c(-c3ccc(C)cc3)nnc3ccccc23)cc(OC)c1OC`, the “activity change, negative = inhibition” value is inactive: 0.236%. On the same count and under the same terms, then `O=C(Cn1nc(-c2ccccc2)ccc1=O)NCc1ccc(F)cc1Cl`, with inactive: -13.7%. On to `COc1ccc(S(=O)(=O)Nc2cccc(-c3ccc(N4CCOCC4)nn3)c2)cc1F`, for which the call was inactive. On to `COc1ccccc1Nc1nn2c(=O)c3ccc(C(=O)N4CCC(C)CC4)cc3nc2s1`, for which the “activity change, negative = inhibition” value is inactive: -7.53%. Turning to `COc1ccccc1CNC(=O)CC1N=C2c3ccccc3N=C(SCC(=O)Nc3ccc(F)cc3)N2C1=O` (stereo not drawn), the “activity change, negative = inhibition” value is inactive: 2.96%. For the compound `Cc1ccc(NC(=O)c2cc(C)nn2-c2ccccc2)cc1`, the “activity change, negative = inhibition” value is inactive: -17.6%.

Turning to `CCOc1cc(C(=O)Nc2ccc3oc(-c4ccc(F)cc4Cl)nc3c2)cc(OCC)c1OCC`, the outcome was inactive.

On to `Cc1nc2scc(C)n2c(=O)c1S(=O)(=O)NCc1ccccc1Cl`, for which the “activity change, negative = inhibition” value is inactive: 2.93%. In the case of `CC1=C(C(=O)OC2CCCC2)C(c2ccc(F)cc2F)CC(=O)N1` (stereo not drawn), the result was inactive. On to `CC(=O)Nc1ccc(NC(=O)CCCc2nc(-c3ccc(C(C)(C)C)cc3)no2)cc1`, for which the “activity change, negative = inhibition” value is inactive: -7.01%. Turning to `CC(=O)c1ccc(N2C(=O)N(Cc3cccc(C(F)(F)F)c3)c3ccccc3S2(=O)=O)cc1`, the “activity change, negative = inhibition” value is inactive: -7.42%. In the case of `CCCCNC(=O)CCC(=O)NNc1nc2ccccc2c2nc(-c3ccccc3)nn12`, the call was inactive. For the compound `O=C(CSc1nc(-c2ccc(F)cc2)cc(C(F)(F)F)n1)NCc1ccccc1`, the “activity change, negative = inhibition” value is inactive: -8.12%. `COc1cc(C2C(=O)N(C3CCCCC3)CC(=O)N2C2CCCC2)ccc1OC(C)C` (stereo not drawn): the “activity change, negative = inhibition” value is inactive: 3.96%. Turning to `COc1ccc(OCC(=O)NCC2(N3CCN(C)CC3)CCCCC2)cc1`, the “activity change, negative = inhibition” value is inactive: 0.343%. Regarding `CC(C)(C)OC(=O)N1CCC(c2c(C(=O)NC3CCN(Cc4ccccc4)CC3)cnn2-c2cccc(F)c2)CC1`, the “activity change, negative = inhibition” value was inactive: -3.36%. Take `CCOC(=O)c1ccc2c(c1)N(Cc1cccc(OC)c1)C(=O)c1ccccc1S2(=O)=O`: the “activity change, negative = inhibition” value was inactive: 3.34%. On the same count and under the same terms, then `O=[N+]([O-])c1cc(-c2nc(-c3ccccc3)no2)ccc1NCC1CCCO1` (stereo not drawn), with inactive: 5.1%; and `Cc1ccc2ncc(C(=O)NCc3ccccc3Cl)c(=O)n2c1`, with inactive: 1.27%; and `CCC(CC)C(=O)Nc1ccc(OCc2cc(=O)n3ccsc3n2)cc1`, with inactive: -0.615%.

With `CC(=O)Nc1ccccc1-c1nc2ccccc2n(CC(=O)c2ccc(C)c(C)c2)c1=O`, the compound was classed as inactive.

For the compound `CN(C)Cc1cccc(N=C(c2ccccc2)c2c(O)[nH]c3cc(C(=O)N(C)C)ccc23)c1`, the “activity change, negative = inhibition” value is inactive: 14.3%. `Cc1ccc(-c2cc(C(=O)NC(C)c3ccccc3)c3ccccc3n2)cc1C` (stereo not drawn): the “activity change, negative = inhibition” value is inactive: 3.72%. With `CCCS(=O)(=O)c1ncc(Cl)c(C(=O)N2CCN(c3ccc(OC)cc3)CC2)n1`, the call was inactive.

`CC1CCN(c2ccc(NC(=O)c3cccc(Cl)c3)cc2C(=O)O)CC1`: the “activity change, negative = inhibition” value was inactive: -4.13%. On the same count and under the same terms, next, `CCOc1cccc2sc(N(Cc3cccnc3)C(=O)C3CCCCC3)nc12`: inactive: 5.67%; `Cc1ccc(NC(=O)CSCc2cnn(-c3ccccc3)c2-n2cccc2)c(C)c1`: inactive: -36.3%; `CCc1ccccc1NC(=O)c1ccc(F)c(S(=O)(=O)NC2CCCCCC2)c1`: inactive: -3.22%.

As to `COc1ccc(NC(=O)C2CCCN(C(=O)c3cnn(-c4ccc(F)cc4)c3-n3cccc3)C2)cc1` (stereo not drawn), the result was inactive. On to `Cn1c(=O)cc(OCC(=O)N2CCN(c3ccccc3)CC2)c2ccccc21`, for which the compound was classed as inactive. In the case of `COc1ccc(NC(=O)CSc2nc3ncccc3[nH]2)c(OC)c1`, the “activity change, negative = inhibition” value is inactive: 10.4%. `Cc1cc(OC(C)C(=O)N(Cc2ccco2)Cc2ccccc2F)cc(C)c1Cl` (stereo not drawn): the “activity change, negative = inhibition” value was inactive: -0.571%. On to `O=C(CCCCn1c(=O)c2ccccc2n(Cc2ccc(Cl)cc2)c1=O)NCc1ccccc1Cl`, for which the “activity change, negative = inhibition” value is inactive: 6.15%. On to `COc1ccc(C)cc1NCc1nnc2n1CCCCC2`, for which the outcome was inactive. On to `Cc1ccc(CCNC(=O)C2CCN(c3nnc(C)c4c(C)n(-c5ccccc5)nc34)CC2)cc1`, for which the “activity change, negative = inhibition” value was inactive: -13.5%. Regarding `COc1ccc(-c2cc(C(=O)Oc3cccc(C)c3)c3ccccc3n2)cc1`, the “activity change, negative = inhibition” value is inactive: 1.31%. As to `CCC(=O)N1CCc2cc(Br)cc(S(=O)(=O)N3CCN(c4ccc(C(C)=O)cc4)CC3)c21`, the “activity change, negative = inhibition” value was inactive: 6.67%.

Consider `CN1CCN(C(c2ccccc2Cl)c2sc3nc(-c4ccco4)nn3c2O)CC1` (stereo not drawn), for which the “activity change, negative = inhibition” value is inactive: -6.68%. For `Cc1cccc(NC(=O)c2ccc(C(=O)Nc3cccc(C)c3C)cc2)c1C`, the call was inactive. On to `Cc1ccc(C)c(N2CCN(CCCNC(=O)C3COc4ccccc4C3)CC2)c1` (stereo not drawn), for which the “activity change, negative = inhibition” value was inactive: -24.4%. As for `COc1ccc(CCNC(=O)c2c(O)nc3cc(C)ccn3c2=O)cc1OC`, the call was inactive. The same measure, in the same setting: next, `O=C(Cn1nc2c(cc1=O)CCCC2)Nc1ccc(F)cc1F`: “inactive”.

With `N#C/C(=C\c1ccc(-c2ccccc2C(=O)O)o1)c1nc2ccccc2[nH]1`, the “activity change, negative = inhibition” value was inactive: -16.4%.

Turning to `CC(C)C[C@@H](N)[C@H](O)C(=O)N[C@H](C(=O)N[C@H](C(=O)N[C@@H](CC(=O)O)C(=O)O)C(C)C)C(C)C`, the “activity change, negative = inhibition” value is inactive: -5.02%.
